This is an account of results in PubChem BioAssay (NCI).

Molecules are shown by their SMILES.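 Test compounds were applied to cells in 96-well plates for 48 hours at 5 doses. Here, GI50 denotes the concentration required for 50% inhibition of growth.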 A number of entries come with more than one value. They are shown here; other results are not. An entry can have further records. For some of these results: The tests behind the records often covered other concentration ranges, which the source does not state; some values may only mark the edge of a range.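 TGI marks complete inhibition of growth.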 For some of these results: Values that stand side by side repeat one measurement (runs, samples, wells, individuals or studies). A tag in brackets gives the origin of a value. Letters hold for one entry only.

What all share (assay): NCI tumour cell line growth inhibition, 48 h
In assay [1] the test system is T-47D breast.
Assay [2] deals with NCI-H23 lung.
Assay [3] deals with MOLT-4 leukemia.
Assay [4] concerns SNB-75 CNS.
In assay [5] the test system is NCI-H460 lung.
Assay [6] concerns NCI/ADR-RES ovarian.
Assay [7] concerns HCT-15 colon.
Assay [8] relates to SK-MEL-2 melanoma.
Assay [9] concerns HOP-62 NSCLC.
In assay [10] the test system is SN12C renal.
In assay [11] the test system is MCF7 breast.
For assay [12], the system named is OVCAR-8 ovarian.
Assay [13] deals with OVCAR-5 ovarian.
Assay [14] deals with SW-620 colon.
The test system of assay [15] is IGROV1 ovarian.
Assay [16] concerns MALME-3M melanoma.
Assay [17] has as its system SNB-19 CNS.
Assay [18] relates to NCI-H522 lung.

On to `Cc1c2ncccc2c(C)c2c1[nH]c1ccc(O)cc12`, for which the TGI in assay [1] is 25.1 µM and 500 µM; in [2] it was 26.2 µM and 277 µM; in [4], 17.3 µM and 500 µM. Also, the GI50 in assay [3] was 5.1 µM and 377 nM.

Regarding `CC(C)SC1SCC2C(=O)N(C)C3(CC3C)C(=O)OCC(NC(=O)c3nc4ccccc4cc3O)C(=O)NC(C)C(=O)N(C)C1C(=O)N(C)C1(CC1C)C(=O)OCC(NC(=O)c1nc3ccccc3cc1O)C(=O)NC(C)C(=O)N2C` (centres undefined), the TGI in assay [5] is < 0.1 nM and 70.6 nM; in assay [6] it was 76.7 nM and > 100 µM; in assay [7], 3.41 nM and > 100 µM; in assay [8], < 0.1 nM and > 100 µM; in assay [9] it was < 0.1 nM and 421 nM; in assay [10], < 0.1 nM and > 100 µM. Moreover, the TGI is < 0.1 nM and > 100 µM in assay [11]; < 0.1 nM and 1.79 µM in assay [12]; < 0.1 nM and 1.3 µM in assay [13]; < 0.1 nM and > 100 µM in assay [14]; 3.75 nM and 1.11 µM in assay [15]; < 0.1 nM and > 100 µM in assay [16]. Besides, the TGI in [17] was 266 nM and > 100 µM.

On to `O=C1NC(=O)[C@@H](c2cn3c4c(cccc24)CCC3)[C@@H]1c1c[nH]c2ccccc12`, for which the TGI in assay [4] was > 10 µM [sample A, 1 test] and 638 nM [sample B, 1 test]; in assay [18], 813 nM [sample A, mean of 2 tests] and 10.8 µM [sample B, mean of 2 tests].
